In a collection of fitness landscapes (doi:10.1126/science.1257360) one finds enrichment ratio data, which are given here for 153 variants.

B1: PhoQ; a variant is named by its letters at X, in order, P23837 (parent)
chain: MKKLLRLFFPLSLRVRFLLATAAVVLVLSLAYGMVALIGYSVSFDKTTFRLLRGESNLFYTLAKWENNKLHVELPENIDKQSPTMTLIYDENGQLLWAQRDVPWLMKMIQPDWLKSNGFHEIEADVNDTSLLLSGDHSIQQQLQEVREDDDDAEMTHSVAVNVYPATSRMPKLTIVVVDTIPVELKSSYMVWSWFIYVLSANLLLVIPLLWVAAWWSLRPIEALAKEVRELEEHNRELLNPATTRELTSLVRNLNRLLKSERERYDKYRTTLTDLTHSLKTPLXXLQXXLRSLRSEKMSVSDAEPVMLEQISRISQQIGYYLHRASMRGGTLLSRELHPVAPLLDNLTSALNKVYQRKGVNISLDISPEISFVGEQNDFVEVMGNVLDNACKYCLEFVEISARQTDEHLYIVVEDDGPGIPLSKREVIFDRGQRVDTLRPGQGVGLAVAREITEQYEGKIVAGESMLGGARMEVIFGRQHSAPKDE

The list shows a part of the results.

Variants of B1 are the subject of the test. The test is described as follows: enrichment ratio after two sorts for PhoP signalling (ratio (wild type AVST 3.29)); higher = more functional. The note with it: with PhoP (E. coli).
With HFNF, the enrichment ratio was at most 0.25.

As to YKAI, the enrichment ratio was at most 0.25.

As for IAPI, the enrichment ratio was at most 0.25.

For the variant GFYH, the enrichment ratio was at most 0.25.

As to SLDW, the enrichment ratio was at most 0.25.

For VYRK, the enrichment ratio is at most 0.25.

With TPVC, the enrichment ratio was at most 0.25.

In the case of GRQW, the enrichment ratio was at most 0.25.

For the variant QLIP, the enrichment ratio is at most 0.25.

KLTQ: the enrichment ratio is at most 0.25.

For QLEK, the enrichment ratio was at most 0.25.

On to MVVP, for which the enrichment ratio is at most 0.25.

For CPCP, the enrichment ratio is at most 0.25.

For the variant PERK, the enrichment ratio is at most 0.25.

Turning to VPFV, the enrichment ratio is at most 0.25.

For the variant YAHP, the enrichment ratio is at most 0.25.

Regarding IEIG, the enrichment ratio was at most 0.25.

For LIFL, the enrichment ratio is at most 0.25.

Consider MLTA, for which the enrichment ratio is at most 0.25.

PEIV: the enrichment ratio was at most 0.25.

Consider MPGF, for which the enrichment ratio was at most 0.25.

As for WYLH, the enrichment ratio is at most 0.25.

Take GYCR: the enrichment ratio was at most 0.25.

As to FWYM, the enrichment ratio was at most 0.25.

Turning to KIAY, the enrichment ratio was at most 0.25.

Turning to GCDH, the enrichment ratio was at most 0.25.

Turning to NLMR, the enrichment ratio was at most 0.25.

Take WPRK: the enrichment ratio is at most 0.25.

Take KTFD: the enrichment ratio was at most 0.25.

For the variant ADQD, the enrichment ratio is at most 0.25.

As for VGPQ, the enrichment ratio is at most 0.25.

For YAAG, the enrichment ratio was at most 0.25.

As to WVPP, the enrichment ratio is at most 0.25.

For RYWP, the enrichment ratio is at most 0.25.

Turning to WDDH, the enrichment ratio was at most 0.25.

For WKNC, the enrichment ratio is at most 0.25.

As for QCAW, the enrichment ratio is at most 0.25.

Take FWRK: the enrichment ratio is at most 0.25.

For the variant TNPK, the enrichment ratio was at most 0.25.

For AAKL, the enrichment ratio was at most 0.25.

For the variant NYPN, the enrichment ratio is at most 0.25.

For the variant VPEY, the enrichment ratio was at most 0.25.

As for DMQT, the enrichment ratio was at most 0.25.

With KCRK, the enrichment ratio was at most 0.25.

On to IKTS, for which the enrichment ratio was at most 0.25.

With KSHE, the enrichment ratio was at most 0.25.

As to QNQF, the enrichment ratio was at most 0.25.

For QRGY, the enrichment ratio was at most 0.25.

RYDV: the enrichment ratio is at most 0.25.

Regarding SCDF, the enrichment ratio was at most 0.25.

For KCRA, the enrichment ratio is at most 0.25.

Regarding ACWF, the enrichment ratio was at most 0.25.

IPDI: the enrichment ratio was at most 0.25.

With RMTD, the enrichment ratio is at most 0.25.

EKYW: the enrichment ratio was at most 0.25.

In the case of WPNR, the enrichment ratio is at most 0.25.

With KFAG, the enrichment ratio is at most 0.25.

For KSDL, the enrichment ratio was at most 0.25.

As for HWAD, the enrichment ratio is at most 0.25.

YMFW: the enrichment ratio was at most 0.25.

Turning to SLKQ, the enrichment ratio was at most 0.25.

Take SYIL: the enrichment ratio was at most 0.25.

Take NYTR: the enrichment ratio is at most 0.25.

For the variant KTNF, the enrichment ratio was at most 0.25.

For the variant PYAY, the enrichment ratio is at most 0.25.

Take MMMV: the enrichment ratio was at most 0.25.

Take SCFM: the enrichment ratio is 0.373.

Consider RVYT, for which the enrichment ratio is at most 0.25.

Turning to ENSD, the enrichment ratio was at most 0.25.

As to FRME, the enrichment ratio was at most 0.25.

On to GVPT, for which the enrichment ratio was at most 0.25.

For the variant HMMM, the enrichment ratio was at most 0.25.

With ESPW, the enrichment ratio was at most 0.25.

Consider THNQ, for which the enrichment ratio came to 30.9.

Regarding IFYE, the enrichment ratio is at most 0.25.

Regarding HRVN, the enrichment ratio is at most 0.25.

For the variant MSAS, the enrichment ratio is 12.6.

KNQL: the enrichment ratio was at most 0.25.

RFST: the enrichment ratio is at most 0.25.

Regarding KDHI, the enrichment ratio was at most 0.25.

Take IVNG: the enrichment ratio was at most 0.25.

Consider NKVF, for which the enrichment ratio is at most 0.25.

Turning to VDNE, the enrichment ratio was at most 0.25.

Regarding QMAC, the enrichment ratio is at most 0.25.

Consider GYDN, for which the enrichment ratio is at most 0.25.

With MYDV, the enrichment ratio is at most 0.25.

On to QMCM, for which the enrichment ratio was at most 0.25.

Consider LWHP, for which the enrichment ratio is at most 0.25.

Consider NFNE, for which the enrichment ratio is at most 0.25.

Consider HYKH, for which the enrichment ratio is at most 0.25.

Take PSGP: the enrichment ratio was at most 0.25.

TEHF: the enrichment ratio came out at 3.55.

DQAK: the enrichment ratio was at most 0.25.

ANPY: the enrichment ratio is at most 0.25.

For the variant VGTI, the enrichment ratio was at most 0.25.

With WKRN, the enrichment ratio was at most 0.25.

As to SIEK, the enrichment ratio is at most 0.25.

Take HIWQ: the enrichment ratio was at most 0.25.

As to AHFS, the enrichment ratio is at most 0.25.

On to ETLM, for which the enrichment ratio was at most 0.25.

Regarding ANRR, the enrichment ratio is at most 0.25.

For CYSS, the enrichment ratio is at most 0.25.

As to AFRS, the enrichment ratio was at most 0.25.

For the variant NWCH, the enrichment ratio is at most 0.25.

As to VAVY, the enrichment ratio was at most 0.25.

For the variant RVPS, the enrichment ratio was at most 0.25.

As for SGCG, the enrichment ratio stood at 8.56.

Consider VMFH, for which the enrichment ratio is at most 0.25.

For the variant VFTG, the enrichment ratio was at most 0.25.

Take KYFK: the enrichment ratio was at most 0.25.

As to HAGK, the enrichment ratio is at most 0.25.

Regarding NPGA, the enrichment ratio was at most 0.25.

In the case of LGWQ, the enrichment ratio stood at 2.87.

For the variant WDNA, the enrichment ratio was at most 0.25.

Take HQEE: the enrichment ratio is at most 0.25.

Turning to ITVS, the enrichment ratio was at most 0.25.

In the case of NPEC, the enrichment ratio was at most 0.25.

For the variant AFMK, the enrichment ratio is at most 0.25.

As for GDHQ, the enrichment ratio was at most 0.25.

As to VWIE, the enrichment ratio is at most 0.25.

Consider LDHS, for which the enrichment ratio was at most 0.25.

For the variant KADV, the enrichment ratio was at most 0.25.

As to VNYG, the enrichment ratio is at most 0.25.

Take PRAN: the enrichment ratio was at most 0.25.

SQEP: the enrichment ratio was at most 0.25.

In the case of KYKY, the enrichment ratio is at most 0.25.

QSPS: the enrichment ratio is at most 0.25.

Take LTAN: the enrichment ratio is at most 0.25.

Consider TKFK, for which the enrichment ratio was at most 0.25.

Consider RFVG, for which the enrichment ratio is at most 0.25.

Take EHDY: the enrichment ratio was at most 0.25.

Regarding CTSG, the enrichment ratio is at most 0.25.

Regarding FHRM, the enrichment ratio is at most 0.25.

Consider VYFV, for which the enrichment ratio was at most 0.25.

Take NDNR: the enrichment ratio is at most 0.25.

LNYP: the enrichment ratio is at most 0.25.

For the variant KMLG, the enrichment ratio is at most 0.25.

Regarding WHSV, the enrichment ratio was at most 0.25.

As for YRSW, the enrichment ratio is at most 0.25.

For the variant TYRY, the enrichment ratio is at most 0.25.

In the case of QHLH, the enrichment ratio was at most 0.25.

In the case of HHFA, the enrichment ratio is at most 0.25.

For GDDY, the enrichment ratio is at most 0.25.

Regarding MTHT, the enrichment ratio is at most 0.25.

For the variant IRQK, the enrichment ratio is at most 0.25.

For NHYD, the enrichment ratio is at most 0.25.

Take SEAS: the enrichment ratio is 26.6.

Regarding NKRV, the enrichment ratio was at most 0.25.

As to REQA, the enrichment ratio is at most 0.25.

For RSGC, the enrichment ratio was at most 0.25.

For EYPR, the enrichment ratio is at most 0.25.

SNMW: the enrichment ratio was determined as 3.59.

With SADC, the enrichment ratio was at most 0.25.
